Data: PubChem BioAssay AID624417 (National Center for Advancing Translational Sciences (NCATS), 2012)
“And” between values parts separate entries of the source, which are not always exact repeats. Equal entries are not always repeated. In all, about 410,000 compounds went through this assay and about 6,400 (1.6%) were called active. The shares of active, inactive and inconclusive entries below differ from those in the screen. Calls follow the shape of the dose curve; as a rule, active = well fitted inhibition curve with a large enough effect; inconclusive = small, poorly fitted or top-dose-only effect; inactive = no such curve, though single readings can be large or run the other way. Potencies of inconclusive entries are doubtful fits and often do not repeat.

target: Glucagon-like peptide 1 receptor (Homo sapiens) (UniProt P43220); experiment: qHTS of GLP-1 Receptor Inverse Agonists (Inhibition Mode); settings: HEK293 GLP-1R CRE-luciferase, luminescence, 24 h, GLP-1R form is constitutively active; activity change, negative = inhibition: at 38.3 µM (top of the series) unless noted; also: nearly all actives have a fitted effect of over 55% in size
Sequence of UniProt P43220 (P43220 whole entry, looked up): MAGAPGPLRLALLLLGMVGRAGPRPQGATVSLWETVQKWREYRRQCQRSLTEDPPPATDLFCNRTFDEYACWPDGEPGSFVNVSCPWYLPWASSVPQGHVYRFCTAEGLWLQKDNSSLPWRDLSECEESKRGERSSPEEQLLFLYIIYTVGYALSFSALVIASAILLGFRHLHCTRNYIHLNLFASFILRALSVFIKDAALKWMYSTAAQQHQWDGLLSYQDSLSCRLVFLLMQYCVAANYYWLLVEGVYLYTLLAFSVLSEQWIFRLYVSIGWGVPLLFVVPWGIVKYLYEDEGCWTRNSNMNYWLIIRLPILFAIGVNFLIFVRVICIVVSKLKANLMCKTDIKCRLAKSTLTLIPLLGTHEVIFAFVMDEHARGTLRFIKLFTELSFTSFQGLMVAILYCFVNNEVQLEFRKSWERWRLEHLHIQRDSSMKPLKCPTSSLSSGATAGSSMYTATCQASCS
Summary of the method: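 qHTS in 1536-well format: reporter HEK293 cells expressing constitutive GLP-1R activity in DMEM + 10% Nu serum, 24 hr with compounds at 37 deg C, luminescence read after 12 min with detection reagent.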
% is scaled to controls: 0 for no effect and ±100 for the full control effect; potency is read from the fitted curve at half-maximal effect; tags tell the direction and shape of the fitted curve.

Activity change, negative = inhibition, inactive:
COc1cc(OC)cc(C(=O)NC(=S)Nc2cc3oc4ccccc4c3cc2OC)c1 1.11%
CCN(c1ccccc1)S(=O)(=O)c1ccc(NN)nc1 -5.07%
CN1CCN(S(=O)(=O)c2ccc(NC(=O)c3cccs3)cc2)CC1 1.22%
COc1ccc(-c2ccccc2C2=CC(=O)CC(C)(C)C2=O)cc1 -23.5%
O=[N+]([O-])c1ccc(NN=Cc2cccc3ccccc23)cc1 0.832%
COc1cc2c(cc1OC)C(c1ccccc1)N(C(=O)CCl)CC2 (centres undefined) -13.5%
Clc1ccc2nc(-c3ccccn3)c(Nc3ccc4c(c3)OCO4)n2c1 -13%
CCCCOC(=O)NC1CCc2cc(OC)c(OC)c(OC)c2-c2ccc(SC)c(=O)cc21 (centres undefined) -57.4%
Cc1ccc(CN2CCSc3ccc(C(=O)N4CCN(c5cccc(C)c5C)CC4)cc32)cc1 -5.73%
CC1CCC2(CC1)NC(=O)N(CC(=O)N(Cc1ccccc1)C(C)(C)C)C2=O (centres undefined) 7.36%
O=c1c2c3c(sc2nnn1Cc1ccc(Br)cc1)CCCC3 -2%
COc1ccccc1S(=O)(=O)Nc1ccc(S(=O)(=O)Nc2nccs2)cc1 9.53%
CCOc1ccccc1NC(=O)Cn1c(=O)ccc2cc(S(=O)(=O)N3CCC(C)CC3)ccc21 13.5%
CCCC(C(=O)NC(C)(C)CC)N(Cc1ccco1)C(=O)CNS(=O)(=O)c1ccccc1 (centres undefined) -17%

Potency, active:
CCOC(=O)c1c(NC(=O)CNC2CCCCC2)sc(C)c1C 3.98 µM
CCOc1ccccc1NS(=O)(=O)c1c(-c2ccc(C)cc2)csc1C(=O)OC 11.2 µM
C=CCNC(=S)NNc1nc2c(c(=O)[nH]1)C1(CCCCC1)Cc1ccccc1-2 10 µM
CCOC(=O)c1cc(-c2ccccc2)n(CCCC(=O)Nc2ccc(CC)cc2)c1C 10 µM
O=S(=O)(NCCc1csc(-c2ccc(F)cc2)n1)c1ccc(Cl)cc1 11.2 µM
CCOC(=O)C1=C(C)NC(C)=C(C(=O)OCC)C1c1cccc([N+](=O)[O-])c1 10 µM

Potency, inconclusive:
CN1CCN(c2ccc(NC(=O)c3ccccc3)cc2)CC1 3.16 µM [inhibitor, full curve, poor fit]
COc1ccc([C@H]2C[C@H](O)[C@@H](n3cc(-c4ccc(F)cc4)nn3)CN2Cc2cccs2)cc1 1.78 µM [inhibitor, full curve, poor fit]
C=C1CCN([C@@H](Cc2ccccc2)C(=O)NCc2ccc(Cl)cc2)S(=O)(=O)c2ccccc21 14.1 µM [inhibitor, partial curve, poor fit]
O=C1NC[C@H](Cc2ccccc2)N(C[C@H]2CCCN2C[C@H](Cc2ccccc2)N2C[C@H](Cc3ccc(O)cc3)N(CC3CCCCCC3)C(=O)C2=O)C1=O 28.2 µM [inhibitor, single point]
O=C1OCCN1C(=O)[C@H]1[C@H](c2ccccc2)C(c2ccccc2)=NN1c1ccc(Br)cc1 10 µM [inhibitor, partial curve, poor fit]
COc1ccc(NC(=O)c2cc(SC)ccc2Cl)cc1 14.1 µM [inhibitor, single point]
Cc1ccc(C(=O)NCC(c2ccco2)N2CCc3ccccc32)cc1C (centres undefined) 10 µM [inhibitor, partial curve, poor fit]
COc1cccc(/C=C(/C(=O)OCC(=O)NCC2CCCO2)c2ccccc2)c1 (centres undefined) 28.2 µM [inhibitor, single point]
O=C(c1ccc(N2CCCCC2)c([N+](=O)[O-])c1)N1CCN(S(=O)(=O)c2ccccc2)CC1 22.4 µM [inhibitor, single point]
Cc1cc(C)cc(CN2C(=O)NC3(CCCCCC3)C2=O)c1 14.1 µM [inhibitor, partial curve, poor fit]
COc1ccc(Cl)cc1NC(=O)c1ccoc1C 4.47 µM [inhibitor, partial curve, poor fit]
CC(C)Oc1ccc(S(=O)(=O)N(C(C)C)C(C)C)cn1 28.2 µM [inhibitor, single point]
OC(CNCc1ccc(Cl)cc1)(c1ccccc1)c1ccc(F)cc1 (centres undefined) 12.6 µM [inhibitor, single point]
CCOC(=O)c1ccccc1N/C=C/C(=O)c1cccs1 28.2 µM [inhibitor, single point]
O=C(CSc1nc2ccccc2o1)Nc1nccs1 28.2 µM [inhibitor, single point]
CSCCC(NS(=O)(=O)c1ccccc1)C(=O)Nc1nccs1 (centres undefined) 1.58 µM [inhibitor, full curve, poor fit]
CN(CC(=O)Nc1ccccc1C(=O)NC1CC1)Cc1ccc(Cl)s1 28.2 µM [inhibitor, single point]
Cc1c(Cl)c([N+](=O)[O-])nn1CCCC(=O)N(Cc1ccccc1)Cc1ccccc1 28.2 µM [inhibitor, single point]
COCCNC(=O)/C(C#N)=C/c1ccc(OCc2ccc(F)cc2)cc1 2 µM [inhibitor, partial curve, poor fit]
COc1ccc2oc3cc(NCCN(C)C)ccc3c(=O)c2c1 11.2 µM [inhibitor, single point]
Cc1ccc(C#CC[N+]2(CC#Cc3ccc(C)cc3)CCCCC2)cc1 1.12 µM [inhibitor, full curve, poor fit]
N/C(Cc1ccc([N+](=O)[O-])cc1)=N\OC(=O)COc1ccccc1Cl 28.2 µM [inhibitor, single point]
COc1ccc(CC(=O)N2CCCc3ccccc32)cc1 7.08 µM [inhibitor, partial curve]
COc1ccc(CN2CCC(Oc3ccc(C(=O)NCc4ccccn4)cc3)CC2)c(F)c1 8.91 µM [inhibitor, partial curve, poor fit]
CCCc1nnc(NC(=O)c2nc(S(=O)(=O)Cc3ccc(C)cc3)ncc2Cl)s1 28.2 µM [inhibitor, single point] and 14.1 µM [inhibitor, single point]
O=C(NCc1ccc2c(c1)OCO2)C1CCCN(C(=O)c2ccc(Cl)cc2)C1 (centres undefined) 12.6 µM [inhibitor, single point]
FC(F)(F)c1ccccc1/C=N/Nc1ccccn1 5.62 µM [inhibitor, full curve, poor fit]
COc1ccc(-c2cnc(C)o2)cc1S(=O)(=O)Nc1ccc(C)c(F)c1 0.501 µM [inhibitor, full curve, poor fit]
Cc1cccc(NS(=O)(=O)c2ccc(C(=O)N3CCN(c4ccccc4O)CC3)cc2)c1C 10 µM [inhibitor, partial curve, poor fit]
COCC(=O)N/N=C\c1ccccc1OC/C=C/c1ccccc1 8.91 µM [inhibitor, single point]
COc1ccc(-c2csc(NCc3ccco3)n2)cc1C 28.2 µM [inhibitor, single point]
Cc1ccc(OCCCn2c(C3CC(=O)N(c4cccc(Cl)c4)C3)nc3ccccc32)c(C)c1 (centres undefined) 3.55 µM [inhibitor, full curve, poor fit]
Clc1ccc2nc(-c3ccccc3)nc(C(Cl)Cl)c2c1 14.1 µM [inhibitor, single point]
Cc1cc(C)c(S(=O)(=O)NNC(=O)C2CCN(Cc3ccccc3)CC2)c(C)c1 10 µM [inhibitor, partial curve, poor fit]
OC(c1ccc(F)c(F)c1)c1nc(-c2ccc3ccccc3c2)cs1 (centres undefined) 28.2 µM [inhibitor, single point]
COc1ccc(C=O)c(-c2c(-c3ccccc3OC)sc3ccccc23)c1 28.2 µM [inhibitor, single point]
CCOCc1c(C(=O)NCc2ccccc2CN2CCCC2)oc2ccccc12 28.2 µM [inhibitor, single point]
Cc1ccc(Oc2cc(NC(=O)CCCn3nc([N+](=O)[O-])cc3C)cc([N+](=O)[O-])c2)cc1 28.2 µM [inhibitor, single point]
CCOC(=O)c1cnc2ccc(F)cc2c1Nc1ccc2c(c1)OCCO2 0.501 µM [inhibitor, full curve, poor fit]
COc1ccc(Cn2c(C3CC3)nc3ccc(NC(=O)C4CC4)cc3c2=O)cc1 10 µM [inhibitor, partial curve]
CCN(C(=O)Cc1c(C(=O)O)[nH]c2ccccc12)c1ccc(OC)cc1 28.2 µM [inhibitor, single point]
Cc1ccc(-n2nnnc2Sc2ccc(S(=O)(=O)NCCN(C)C)cc2[N+](=O)[O-])cc1 5.62 µM [inhibitor, partial curve, poor fit]
COc1cc(CNC(=O)Nc2nc(C(N)Cc3ccc(Cl)cc3)cs2)cc(OC)c1OC (centres undefined) 22.4 µM [inhibitor, single point]
COc1ccc([C@@H]2[C@@H]3C(=O)N(C(C)(C)C)C(=O)[C@@H]3[C@]3(Cc4ccc(Cl)cc4)C(=O)N(c4cccc(F)c4)C(=O)N23)cc1 20 µM [inhibitor, single point]
